Source: US7592316B2, “Peptides as NS3-serine protease inhibitors of hepatitis C virus” (Schering Corporation, priority 2000, dated 2009)
*1 amine or outer side, *2 acyl side, *3 side chain or, on linkers, in order; H or OH if unused. Where a SMILES comes first, the peptide text is derived from it. [ ]: non-standard residue; d: D form. The star is where a group is joined. Pro(3R,4S-CMe2) = CC1(C)[C@@H]2[C@@H](C(=O)O)NC[C@@H]21; Pro(3S,4R-CMe2) = CC1(C)[C@H]2[C@@H](C(=O)O)NC[C@H]21; X32 = O=C(C(=O)[*:2])C(CC1CCC1)N[*:1]; X8 = O=C(C(=O)[*:2])C(CC1CC1)N[*:1]; Adoc = O=C(OC12CC3CC(CC(C3)C1)C2)*; X4 = CCCCC(N[*:1])C(=O)C(=O)[*:2]; Chg = N[C@H](C(=O)O)C1CCCCC1; Phg = N[C@H](C(=O)O)c1ccccc1; Tle = CC(C)(C)[C@H](N)C(=O)O; Boc = CC(C)(C)OC(=O)*; CO = O=C([*:1])[*:2]; NHtBu = CC(C)(C)N*; NHiPr = CC(C)N*

Target: HCV NS3/NS4A protease (strain 1a) (Hepatitis C virus genotype 1a, UniProt P27958)
Test: biochemical
Details: Table 5; HCV NS3/NS4A protease, spectrophotometric assay, 30° C., pH 6.5; read-out: Ki* Range

| Structure (SMILES) | Ki [nM] |
| --- | --- |
| CCCC(NC(=O)C1C2CCC(C2)N1C(=O)[C@H](NC(=O)OC(C)(C)C)C(C)(C)C)C(=O)C(=O)NCC(=O)N[C@H](C(=O)N(C)C)c1ccccc1 (stereo partly shown) | 101 to 1000 |
| CC(C)(C)CC(=O)N1C[C@H]2[C@@H]([C@H]1C(=O)NC(CC1CC1)C(=O)C(=O)O)C2(C)C (stereo partly shown) | > 1000 |
| CCCCC(NC(=O)[C@@H]1[C@H]2[C@@H](CN1C(=O)[C@@H](NC(=O)NC(C)C)C(C)(C)C)C2(C)C)C(=O)C(=O)NCC(=O)N[C@H](C(=O)N(C)C)c1ccccc1 (stereo partly drawn) ({NHiPr-CO}-[Tle][Pro(3S,4R-CMe2)][X4]G[Phg]-NMe2) | 1 to 100 |
| CCCCC(NC(=O)[C@@H]1[C@H]2[C@@H](CN1C(=O)[C@@H](NC(=O)OC13CC4CC(CC(C4)C1)C3)C(C)(C)C)C2(C)C)C(=O)C(=O)NCC(=O)N[C@H](C(=O)N(C)C)c1ccccc1 (stereo partly drawn) (Adoc-[Tle][Pro(3S,4R-CMe2)][X4]G[Phg]-NMe2) | 1 to 100 |

Other lines, results leading:

| Ki [nM] | Structure (SMILES) |
| --- | --- |
| 101 to 1000 | CCCC(NC(=O)[C@@H]1[C@@H]2[C@H](CN1C(=O)[C@@H](NC(=O)NC1(C)CC1)C(C)(C)C)C2(C)C)C(=O)C(N)=O (stereo partly shown) |
| 1 to 100 | CCCCC(NC(=O)C1C2CCC(C2)N1C(=O)C(NC(=O)OC(C)(C)C)C1CCCCC1)C(=O)C(=O)NCC(=O)NC(C(=O)N(C)C)c1ccccc1 (stereo not shown) |
| 1 to 100 | CC(C)(C)OC(=O)N[C@H](C(=O)N1C[C@H]2[C@@H]([C@H]1C(=O)NC(CC1CC1)C(=O)C(N)=O)C2(C)C)C1CCC(F)(F)CC1 (stereo partly shown) |
| 101 to 1000 | C=C(C)CC(NC(=O)[C@@H]1[C@H]2[C@@H](CN1C(=O)[C@@H](NC(=O)OC(C)(C)C)C1CCCCC1)C2(C)C)C(=O)C(N)=O (stereo partly shown) |
| 101 to 1000 | C=CCCC(NC(=O)[C@@H]1C2C(CN1C(=O)[C@@H](NC(=O)OC(C)(C)C)C1CCCCC1)C2(C)C)C(=O)C(N)=O (stereo partly shown) |
| > 1000 | CCCC(NC(=O)C1(C)CC(C)(C)CN1C(=O)[C@H](NC(=O)OC(C)(C)C)C(C)(C)C)C(=O)C(=O)NCC(=O)N[C@H](C(=O)N(C)C)c1ccccc1 (stereo partly shown) |

Same assay, conditions: Table 6; HCV NS3/NS4A protease, 30° C., pH 6.5; read-out: Ki*

| Structure (SMILES) | Ki [nM] |
| --- | --- |
| CN(C)C(=O)[C@@H](NC(=O)CNC(=O)C(=O)C(CCC(F)F)NC(=O)[C@@H]1[C@H]2CC(F)(F)C[C@H]2CN1C(=O)[C@@H](NC(=O)OC(C)(C)C)C1CCCCC1)c1ccccc1 (stereo partly shown) | 1 to 100 |
| CN(C)C(=O)[C@@H](NC(=O)CNC(=O)C(=O)C(CC1CC1)NC(=O)[C@@H]1[C@@H]2[C@H](CN1C(=O)[C@@H](NC(=O)OC(C)(C)C)C1CCCCC1)C2(C)C)c1ccccc1 (stereo partly drawn) (Boc-[Chg][Pro(3R,4S-CMe2)][X8]G[Phg]-NMe2) | 1 to 100 |
| C=CCNC(=O)C(=O)C(CCC)NC(=O)[C@@H]1[C@@H]2[C@H](CN1C(=O)C(NC(=O)OCC)C1CCCCC1)C2(C)C (stereo partly shown) | 101 to 1000 |
| CC(C)[C@H](NC(=O)OC(C)(C)C)C(=O)N1C[C@H]2[C@@H]([C@H]1C(=O)NC(CC1CC1)C(=O)C(=O)NCC(=O)N[C@H](C(=O)N(C)C)c1ccccc1)C2(C)C (stereo partly drawn) (Boc-V[Pro(3R,4S-CMe2)][X8]G[Phg]-NMe2) | 1 to 100 |
| C=CCCC(NC(=O)[C@@H]1[C@H]2C(CC)[C@H]2CN1C(=O)[C@@H](NC(=O)OC(C)(C)C)C(C)(C)C)C(=O)C(=O)NCCC(=O)N(C)Cc1ccccc1 (stereo partly shown) | 101 to 1000 |
| CN(C)C(=O)[C@@H](NC(=O)CNC(=O)C(=O)C(CC1CC1)NC(=O)[C@@H]1[C@H]2CC(C)(C)O[C@H]2CN1C(=O)[C@@H](NC(=O)OC(C)(C)C)C(C)(C)C)c1ccccc1 (stereo partly shown) | 1 to 100 |
| CC(C)(C)[C@H](NC(=O)N[C@H](CO)C(C)(C)C)C(=O)N1C[C@H]2[C@@H]([C@H]1C(=O)NC(CC1CCC1)C(=O)C(N)=O)C2(Cl)Cl (stereo partly shown) | 101 to 1000 |
| CC(C)(CF)NC(=O)N[C@H](C(=O)N1C[C@H]2[C@@H]([C@H]1C(=O)NC(CC1CCC1)C(=O)C(N)=O)C2(C)C)C(C)(C)C (stereo partly shown) | 1 to 100 |
| CN(C)C(=O)[C@@H](NC(=O)CNC(=O)C(=O)[C@H](CC1CC1)NC(=O)[C@@H]1[C@H]2CC(C)(C)O[C@H]2CN1C(=O)[C@@H](NC(=O)OC(C)(C)C)C1CCCCC1)c1cccs1 | 1 to 100 |
| CN(C)C(=O)[C@@H](NC(=O)CNC(=O)C(=O)C(CC1CCC1)NC(=O)[C@@H]1[C@@H]2[C@H](CN1C(=O)[C@@H](NC(=O)NC(C)(C)C)C(C)(C)C)C2(C)C)c1ccccc1 (stereo partly drawn) ({NHtBu-CO}-[Tle][Pro(3R,4S-CMe2)][X32]G[Phg]-NMe2) | 1 to 100 |

Continued, values first:

| Ki [nM] | Structure (SMILES) |
| --- | --- |
| 1 to 100 | CC(C)(C)OC(=O)N[C@H](C(=O)N1C[C@H]2[C@@H]([C@H]1C(=O)NC(CC1CC1(F)F)C(=O)C(N)=O)C2(C)C)C(C)(C)C (stereo partly shown) |
| 1 to 100 | CC(C)(C)NC(=O)N[C@H](C(=O)N1C[C@H]2[C@@H]([C@H]1C(=O)NC(CC1CC1)C(=O)C(=O)NCC(=O)OC(C)(C)c1ccccc1)C2(Cl)Cl)C1CCCCC1 (stereo partly shown) |
